Data taken from the supplement of paper PMC9446081.
Screen size: about 39,000 compounds; about 220 (0.56%) showed activity. This is one part of the list.

tested on: Escherichia coli K-12 BW25113; experiment: relative growth (OD600 normalised to plate interquartile mean) (fraction); higher = less growth inhibition, active = 0.2 or less; settings: 50 µM; LB; incubation time: overnight (16-24 h)
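Note: static incubation at 37 °C against the wild-type strain, values averaged over two biological replicates.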

Compound | relative growth
Cc1ccc(S(=O)(=O)N2C[C@@H](O)COC[C@H]3O[C@@H](CC(=O)NCc4ccc5c(c4)OCO5)CC[C@@H]32)cc1 | inactive: 1.01
CNC(=O)C[C@H]1NCCNC1=O | inactive: 0.978
CN1CCN(C(=O)C[C@@H]2CC[C@@H]3[C@H](COC[C@H](O)CN3C(=O)Nc3ccc4c(c3)OCO4)O2)CC1 | inactive: 0.974
COc1ccc(NC(=O)N(C)C[C@H]2OCCCC[C@@H](C)Oc3ccc(NC(=O)Nc4ccc(C(F)(F)F)cc4)cc3C(=O)N([C@H](C)CO)C[C@@H]2C)cc1 | inactive: 1.01
C[C@H](CO)N1C[C@H](C)[C@@H](CN(C)C(=O)Nc2cccc3ccccc23)Oc2ccc(NS(=O)(=O)c3ccc(Cl)cc3)cc2CC1=O | inactive: 1.03
O=C(C[C@H]1CC[C@H]2[C@@H](COC[C@@H](O)CN2S(=O)(=O)c2ccc(F)cc2)O1)NCc1ccc(Cl)c(Cl)c1 | inactive: 0.999
COc1cc2c(cc1OC)-c1c(oc3cc4c(cc3c1=O)CCO4)CO2 | inactive: 0.963
C[C@@H]1CCCCO[C@@H](CN(C)C(=O)C2CCCCC2)[C@@H](C)CN([C@@H](C)CO)C(=O)c2cc(NS(=O)(=O)c3ccc(F)cc3)ccc2O1 | inactive: 1
C[C@@H]1CCCCO[C@H](CN(C)C(=O)Nc2ccccc2)[C@H](C)CN([C@@H](C)CO)C(=O)c2cc(NC(=O)C3CCCCC3)ccc2O1 | inactive: 1.04
COc1ccccc1-c1cccc(-c2nc(C(=O)NCc3ccncc3)cc3c2[C@@H](CCO)N([S@](=O)C(C)(C)C)C3)c1 | inactive: 1
C[C@@H]1CN([C@H](C)CO)C(=O)c2cc(NS(C)(=O)=O)ccc2O[C@H]1CN(C)S(=O)(=O)c1cccs1 | inactive: 1.02
Cc1ccc(S(=O)(=O)N(C)C[C@@H]2Oc3ncc(Br)cc3C(=O)N([C@H](C)CO)C[C@H]2C)cc1 | inactive: 0.999
Cc1noc(C)c1NC(=O)Nc1cccc2c1O[C@@H](CN(C)Cc1ccc(Cl)c(Cl)c1)[C@@H](C)CN([C@H](C)CO)C2=O | inactive: 0.998
COCC(=O)N1C[C@@H](C)[C@@H](OC)CN(C)C(=O)c2ccc(NC(=O)Nc3ccccc3)cc2OC[C@H]1C | inactive: 1
O=C(/C=C/c1ccc(O)c(O)c1)O[C@H]1[C@H](O)[C@@H](O)[C@H](OCCc2ccc(O)c(O)c2)O[C@@H]1CO | inactive: 0.971
O=C(C[C@H]1C[C@@H]2c3cc(NC(=O)C4CCOCC4)ccc3O[C@@H]2[C@H](CO)O1)NCc1cc(F)ccc1F | inactive: 0.982
Cc1ccc(S(=O)(=O)N(C)C[C@@H]2OCCCC[C@H](C)Oc3ccc(NC(=O)Nc4ccccc4)cc3C(=O)N([C@@H](C)CO)C[C@H]2C)cc1 | inactive: 1.02
C[C@@H]1CN([C@@H](C)CO)C(=O)c2cc(NS(=O)(=O)c3ccc(Cl)cc3)ccc2O[C@@H](C)CCCCO[C@H]1CN(C)C(=O)C1CCCCC1 | inactive: 1.05
CC(C)NC(=O)Nc1ccc2c(c1)CC(=O)N([C@@H](C)CO)C[C@@H](C)[C@@H](CN(C)S(=O)(=O)c1ccc(Cl)cc1)O2 | inactive: 1.02
COc1ccc(CCNC(=O)Nc2nn(Cc3ccc(COc4cccc(OC)c4)cc3)c3ccccc23)cc1 | inactive: 1.01

Compound | relative growth
CO/N=C(\C(=O)N[C@@H]1C(=O)N2C(C(=O)O)=C(C)CS[C@H]12)c1csc(N)n1 | active: 0.0368
C[C@H]1CN([C@@H](C)CO)C(=O)c2cc(Br)cnc2O[C@H]1CN(C)S(=O)(=O)c1ccccc1F | inactive: 1.04
C[C@@H]1CN([C@H](C)CO)C(=O)Cc2cc(NS(=O)(=O)c3cn(C)cn3)ccc2O[C@H]1CN(C)S(=O)(=O)c1cccs1 | inactive: 1.02
COc1ccc(S(=O)(=O)Nc2ccc3c(c2)C(=O)N([C@H](C)CO)C[C@@H](C)[C@H](CN(C)Cc2ccc(C(F)(F)F)cc2)OCCCC[C@@H](C)O3)cc1 | inactive: 0.878
CC(C)NC(=O)Nc1ccc2c(c1)CC(=O)N([C@H](C)CO)C[C@@H](C)[C@H](CN(C)C(=O)Nc1ccc3c(c1)OCO3)O2 | inactive: 0.977
CS(=O)(=O)Nc1ccc2c(c1)[C@@H]1C[C@@H](CC(=O)NCC3CC3)O[C@H](CO)[C@@H]1O2 | inactive: 0.974
CN1CCN(CC(=O)N2c3ccccc3C(=O)Nc3cccnc32)CC1.Cl.Cl | inactive: 1.08
Cc1noc(C)c1NC(=O)Nc1ccc2c(c1)C(=O)N([C@H](C)CO)C[C@@H](C)[C@@H](CN(C)S(=O)(=O)c1ccc(Cl)cc1)OCCCC[C@H](C)O2 | inactive: 0.98
Cc1noc(C)c1NC(=O)Nc1ccc2c(c1)C(=O)N([C@@H](C)CO)C[C@@H](C)[C@H](CN(C)S(=O)(=O)c1ccc(F)cc1)OCCCC[C@@H](C)O2 | inactive: 1.02
Nc1ncn([C@H]2C[C@H](OP(=O)(O)OC[C@H]3O[C@@H](n4cnc5c(=O)nc(N)[nH]c54)C[C@@H]3O)[C@@H](CO)O2)c(=O)n1 | inactive: 0.967
COc1ccc(NC(=O)N(C)C[C@H]2Oc3ccc(NC(=O)CCN4CCOCC4)cc3C(=O)N([C@@H](C)CO)C[C@@H]2C)cc1 | inactive: 0.992
COc1ccc(S(=O)(=O)N(C)C[C@H]2OCCCC[C@H](C)Oc3ccc(NC(=O)C4CCCCC4)cc3C(=O)N([C@@H](C)CO)C[C@H]2C)cc1 | inactive: 0.844
CC(C)C#Cc1ccc2c(c1)O[C@H](CN(C)S(=O)(=O)c1cn(C)cn1)[C@@H](C)CN([C@@H](C)CO)S2(=O)=O | inactive: 0.981
O=c1c(-c2ccc(O)cc2)coc2cc(O[C@@H]3O[C@H](CO)[C@@H](O)[C@H](O)[C@H]3O)ccc12 | inactive: 0.992
C[C@@H]1CN([C@H](C)CO)S(=O)(=O)c2ccc(-c3cncnc3)cc2O[C@@H]1CN(C)C(=O)C1CCCCC1 | inactive: 1.03
C[C@@H]1CN([C@H](C)CO)C(=O)c2cc(NC(=O)Nc3ccc(C(F)(F)F)cc3)ccc2O[C@H]1CN(C)C(=O)Nc1ccc2c(c1)OCO2 | inactive: 1
C[C@@H]1CN([C@@H](C)CO)C(=O)c2cccc(NS(=O)(=O)c3ccc(F)cc3)c2O[C@@H]1CN(C)S(=O)(=O)c1ccccc1 | inactive: 1.01
C[C@H]1CN([C@@H](C)CO)C(=O)c2cc(NC(=O)Cn3cnnn3)ccc2O[C@H]1CN(C)C(=O)NC1CCCCC1 | inactive: 0.995
COc1ccc(S(=O)(=O)N(C)C[C@H]2Oc3ccc(NC(=O)CCCN(C)C)cc3C(=O)N([C@@H](C)CO)C[C@H]2C)cc1 | inactive: 0.995
CN1C(=O)c2cc(NC(=O)Cc3cccs3)ccc2OC[C@@H]2O[C@H](CC(=O)NCCc3ccncc3)CC[C@H]21 | inactive: 1.02

Compound | relative growth
CS(=O)(=O)N1[C@H](C(=O)O)[C@@H](CO)[C@@H]2Cn3c(ccc(-c4ccc(F)cc4)c3=O)[C@@H]21 | inactive: 1.03
O=C(C=Cc1ccccc1)c1ccc(OC2OC(CO)C(O)C(O)C2O)cc1O (stereo not drawn) | inactive: 0.945
C[N+](C)(C)CCCC[C@@H]1NC(=O)[C@H]2C[C@@H](C(=O)NCc3ccc(F)cc3)[C@@H](c3cccc(OCCO)c3)N2C1=O | inactive: 1
COc1ccc(CN(C)C[C@H]2OCCCC[C@@H](C)Oc3ccc(NS(=O)(=O)c4cccs4)cc3C(=O)N([C@H](C)CO)C[C@H]2C)cc1 | inactive: 0.992
COc1cccc(C#Cc2cnc3c(c2)C(=O)N([C@@H](C)CO)C[C@H](C)[C@@H](CN(C)C(=O)C2CCC2)O3)c1 | inactive: 1.02
CC(C)C[C@@H](C(=O)N[C@@H](Cc1ccc(OCc2ccccc2)cc1)C(=O)NC(C)(C)C)N(C)Cc1ccc(C(C)(C)C)cc1 | inactive: 0.997
C[C@H]1CN([C@@H](C)CO)C(=O)c2cc(NC(=O)C3CC3)ccc2O[C@@H]1CN(C)Cc1ccc(C(=O)O)cc1 | inactive: 1.01
Cc1cc(C(=O)Nc2cccc3c2O[C@@H](CN(C)Cc2ccc4c(c2)OCO4)[C@H](C)CN([C@H](C)CO)C3=O)n(C)n1 | inactive: 0.993
COc1ccc(NC(=O)N(C)C[C@H]2Oc3ccc(NC(=O)CCCCCC(=O)Nc4ccccc4N)cc3C(=O)N([C@H](C)CO)C[C@@H]2C)cc1 | inactive: 0.984
C[C@@H]1CCCCO[C@H](CN(C)C(=O)CCC(F)(F)F)[C@@H](C)CN([C@H](C)CO)C(=O)c2cc(NC(=O)NC3CCCCC3)ccc2O1 | inactive: 0.92
O=C(C[C@H]1CC[C@H]2[C@@H](COC[C@H](O)CN2C(=O)Nc2cc(Cl)cc(Cl)c2)O1)N1CCOCC1 | inactive: 0.963
COCC#Cc1ccc2c(c1)O[C@@H](CN(C)C(=O)Nc1ccc(OC)cc1)[C@H](C)CN([C@@H](C)CO)S2(=O)=O | inactive: 1
CO[C@@H]1CN(C)C(=O)c2cc(NC(=O)c3cc(C)on3)ccc2OC[C@@H](C)N(S(=O)(=O)c2ccccc2)C[C@H]1C | inactive: 0.962
C[C@H]1CN([C@@H](C)CO)C(=O)Cc2cc(NC(=O)CCCN(C)C)ccc2O[C@@H]1CN(C)S(C)(=O)=O | inactive: 0.984
C[C@H]1CN([C@@H](C)CO)S(=O)(=O)c2ccc(Br)cc2O[C@@H]1CN(C)S(=O)(=O)c1ccccc1 | inactive: 0.857
CC(=O)NCCCC[C@@H]1NC(=O)[C@H]2C[C@@H](C(=O)NCCCC[N+](C)(C)C)[C@@H](c3cccc(OCCO)c3)N2C1=O | inactive: 0.996
C=CCC[C@@H](Cc1ccc(F)cc1)C(=O)OC[C@@H](NC(=O)[C@H](CC=C)CC(=O)N(CCO)Cc1ccccc1)C(C)(C)C | inactive: 1.06
C[C@@H]1CN([C@H](C)CO)C(=O)c2cc(NS(=O)(=O)c3ccccc3)ccc2O[C@H]1CN(C)S(C)(=O)=O | inactive: 0.99
